Experimental findings from PubChem BioAssay AID1508624 (National Center for Advancing Translational Sciences (NCATS), 2021) are described below.

The whole screen tested about 48,000 compounds, of which about 120 (0.25%) were called active. Inconclusive results (about 4%) are left out. The call rests on the fitted dose curve; in most records, active means well fitted activation curve with a large enough effect; inconclusive means small, poorly fitted or top-dose-only effect, or another doubt; inactive means no such curve, though single readings can be large or run the other way. The list shows a part of the results.

This assay in a line: Primary qHTS for Identification of Small Molecule Activators of Huntingtin-Antisense Promoter Activity. Further: nearly all actives have a fitted effect of over 55% in size. As to conditions: HEK293 HTT-AS promoter firefly luciferase reporter, 24 h; series mostly up to 57.5 µM; activity change, positive = activation: at the top concentration. The method in brief:
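Quantitative HTS used concentration series of up to 57.5 uM final on HEK293 luciferase reporter cells, 24 h at 37 degrees C. Readout was Dual-Glo firefly luminescence.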
Consider `Cc1ccc2c(c1)C(Cc1ccccc1F)C(=O)N2` (stereo not given), for which the “activity change, positive = activation” value was inactive: -15.9%.
Consider `COc1ccc(CCNC(=O)C(CC(C)C)N2Cc3ccccc3C2=O)c(OC)c1OC` (stereo not given), for which the “activity change, positive = activation” value was inactive: -4.38%.
The figure for `CCn1cc(CCC(=O)NCc2ccc(C)cc2)c2ccccc21` is inactive: -4.96%.
For the compound `COc1ccc(CCn2c3c(c(=O)[nH]c2=O)C(NC(=O)c2ccccc2F)(C(F)(F)F)C(=O)N3)cc1OC` (stereo not given), the “activity change, positive = activation” value is inactive: -9.5%.
In the case of `CC(C)Oc1ccccc1C1C=C(C(=O)O)Nc2ncnn21` (stereo not given) it was inactive: -15.4%; in that of `COc1cc2c(=O)n(Cc3ccccc3Cl)c(=O)n(CC(=O)Nc3ccc(C)c(C)c3)c2cc1OC`, inactive: -2.38%.
The figure for `Cc1cccc(C(=O)Nc2cc(-c3nc4cccnc4s3)ccc2C)c1` is inactive: 12%; for `COc1ccc(C)cc1NC(=O)C1CCN(S(=O)(=O)c2ccc3[nH]c(=O)oc3c2)CC1` it is inactive: -19.4%.
Consider `CCC1CN(C(=O)N2CCC(C(=O)NCc3ccc(N(C)C)cc3)CC2)c2ccccc2O1` (stereo not given), for which the “activity change, positive = activation” value was inactive: -26.4%.
In the case of `CCCCC(=O)NCc1nc2cccnc2n1Cc1ccc(OC)cc1` it was inactive: -4.5%; in that of `COc1cccc(Nc2ccc3cc(S(=O)(=O)N4CCC(C)CC4)ccc3n2)c1`, inactive: -36.7%.
On to `CCCOc1cccc(C(=O)Nc2cccc(-c3nc4ncccc4o3)c2C)c1`, for which the “activity change, positive = activation” value is inactive: -9.37%.
In the case of `Cc1cn2c(=O)cc(COC(=O)c3cccc(NC(=O)c4ccc(C(C)(C)C)cc4)c3)nc2s1` it was inactive: -1.92%; in that of `CCn1cc2nc(SCC(=O)Nc3ccc(OC)c(OC)c3)n(Cc3ccc(Cl)cc3)c(=O)c2n1`, inactive: -25.2%.
The figure for `CC(=O)c1cccc(NC(=O)C2CCN(C(=O)c3cnn(-c4ccccc4)c3-n3cccc3)CC2)c1` is inactive: -31.7%.
For `Cc1c(C(=O)NCc2ccccc2Cl)sc2nc3n(c(=O)c12)CCCCC3`, the “activity change, positive = activation” value was inactive: 9.73%.
With `COc1ccc(-c2cc(-c3ccc(F)cc3)nc3c2COc2ccc(F)cc2-3)cc1`, the “activity change, positive = activation” value is inactive: -8.29%.
The figure for `COc1ccc(-c2oc3ncn4nc(-c5ccccc5O)nc4c3c2-c2ccc(OC)cc2)cc1` is inactive: -9.51% [at 11.5 µM, percent change from vehicle, -100% = no light]; for `CCOc1ccc(-n2c(/C=C/c3cccc(F)c3)nc3cc(OC)c(OC)cc3c2=O)cc1` it is inactive: -37.1%.
`Cc1ccccc1-c1nc2scc(CCNS(=O)(=O)c3ccccc3)n2n1`: the “activity change, positive = activation” value is inactive: -16.2%.
With `Cc1nn2c(=O)cc(COC(=O)c3cccc(NC(=O)CCc4ccccc4)c3)nc2s1`, the “activity change, positive = activation” value is inactive: -2.38%.
Consider `COc1ccc2c(c1)CCc1c(C(=O)Nc3c(C)nn(Cc4c(Cl)cccc4Cl)c3C)noc1-2`, for which the “activity change, positive = activation” value was inactive: -24.6%.
With `O=C(Nc1cccc(Nc2ncc(Br)c(NCCc3cnc[nH]3)n2)c1)N1CCCC1`, the “activity change, positive = activation” value is inactive: -25.7%.
For `COc1ccccc1N1CCN(CCCNc2cc(=O)n(C)c(=O)n2C)CC1`, the “activity change, positive = activation” value was inactive: 0.335%.
In the case of `O=C(c1cccs1)c1cn(CCOc2ccc(F)cc2)c2ccccc12` it was inactive: -29.4%.
The figure for `CCOC(=O)c1c(C)[nH]c(C)c1S(=O)(=O)NCC(=O)Nc1ccc(CC)cc1` is inactive: 2.05%; for `CCc1ccccc1NC(=O)c1cc2sc(Cl)cc2n1CC` it is inactive: -20.1%; for `CCOC(=O)c1noc2ncn(CC(=O)Nc3cc(Cl)ccc3OC)c(=O)c12` it is inactive: -6.38%.
The figure for `O=C(Cn1cnc2onc(-c3ccc(F)cc3)c2c1=O)N1CCN(c2ccccc2F)CC1` is inactive: -15.4%.
`COc1cc2ccccc2cc1C(=O)Nc1cccc(-c2nc3ccccc3o2)c1`: the activity change, positive = activation was inactive: 4.7% [at 11.5 µM, percent change from vehicle, -100% = no light].
The figure for `COc1ccc(N2CCN(C(=O)c3cn(C)c4ccc(S(=O)(=O)N(C)C5CCCCC5)cc4c3=O)CC2)cc1` is inactive: -11.4% [at 11.5 µM, percent change from vehicle, -100% = no light].
Regarding `COc1ccc(CNC(=O)C2CCN(S(=O)(=O)c3c(C)noc3/C=C/c3cccs3)CC2)cc1`, the “activity change, positive = activation” value is inactive: -4.48%.
For `CC(C(=O)NCc1cccc(Br)c1)n1ncn2cccc2c1=O` (stereo not given), the “activity change, positive = activation” value was inactive: -15.7%.
`Cn1cc(-c2cc3n(n2)CCC(=O)N3CCCC(=O)Nc2ccccc2Cl)c2ccccc21`: the “activity change, positive = activation” value was inactive: -10.4%.
With `COc1cc(-c2nc3ccc(Cl)cn3c2Nc2ccc3c(c2)OCO3)ccc1O`, the “activity change, positive = activation” value is inactive: -19.1%.
`Cc1ccccc1S(=O)(=O)Cc1ccc(C(=O)NCc2ccccc2Cl)o1`: the “activity change, positive = activation” value is inactive: -20.8%.
On to `Nc1nn(-c2ccccc2)nc1C(=O)OCc1ccccc1Br`, for which the “activity change, positive = activation” value was inactive: 5.13%.
In the case of `CC1=C(C(=O)Nc2ccc(C)cc2Cl)C2(CCCCC2)OC1=O` it was inactive: -46.8%.
The figure for `C=CCNc1c(O)cc2c(O)c1C[C@@H](C)C[C@H](OC)[C@@H](O)[C@@H](C)C=C(C)[C@H](OC(N)=O)[C@@H](OC)C=CC=C(C)C(=O)N2` is inactive: -45.1%; for `CC(NC(=O)c1ccc(CSc2nc3ccncc3n2Cc2ccc(F)cc2)cc1)c1ccccc1` (stereo not given) it is inactive: -17.8%; for `O=S(=O)(c1ccccc1)c1nc(-c2cccs2)oc1N1CCCCC1` it is inactive: -23.3%.
Consider `Cc1cccc(OCCCSc2nc(-c3ccc(C(C)(C)C)cc3)nc3cc(=O)[nH]n23)c1C`, for which the “activity change, positive = activation” value was inactive: -10.7%.
In the case of `C1Cc2[nH]nc(-c3nn[nH]n3)c2C1` it was inactive: -15.1%; in that of `CCCCCn1c(=O)[nH]c2cc(C(=O)NCc3ccc(F)cc3)ccc2c1=O`, inactive: -8.67%.
As for `Cc1cccc(-n2c(=O)c3c(c4cc(C)ccc4n3C)n(CC(=O)Nc3ccccc3Cl)c2=O)c1`, the “activity change, positive = activation” value is inactive: -21.3%.
